# Target: Bovine, dephosphorylated, Myelin Basic Protein (MBP) (UniProt P02687)
# Sequence of UniProt P02687 (P02687 whole entry): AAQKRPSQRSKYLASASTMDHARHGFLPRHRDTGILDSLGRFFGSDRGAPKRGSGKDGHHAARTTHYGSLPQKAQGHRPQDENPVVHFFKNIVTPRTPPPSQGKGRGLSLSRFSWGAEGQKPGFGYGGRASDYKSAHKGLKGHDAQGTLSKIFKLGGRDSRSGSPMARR
row,Substance,MBP Kinase Activity
1,KDR(VEGFR2) (sequence not shown),Strong
2,RPS6KA5(MSK1) (sequence not shown),Weak
3,FGFR1 (sequence not shown),Strong

# Reference: patent publication US20090099029
